# Experimental data reported in PMC4336329 (PLoS ONE, 2015).
# About 2,200 (0.71%) of roughly 310,000 compounds showed an effect of 50% or more. Effects have a minus sign here. The list shows a part of the results.
# Molecular target: human ether-à-go-go-related gene (hERG) potassium channel (human, UniProt Q12809)
# Assay: primary screen, population patch clamp on CHO cells stably expressing hERG
# Sequence of human ether-à-go-go-related gene (hERG) potassium channel (Q12809 whole entry, looked up): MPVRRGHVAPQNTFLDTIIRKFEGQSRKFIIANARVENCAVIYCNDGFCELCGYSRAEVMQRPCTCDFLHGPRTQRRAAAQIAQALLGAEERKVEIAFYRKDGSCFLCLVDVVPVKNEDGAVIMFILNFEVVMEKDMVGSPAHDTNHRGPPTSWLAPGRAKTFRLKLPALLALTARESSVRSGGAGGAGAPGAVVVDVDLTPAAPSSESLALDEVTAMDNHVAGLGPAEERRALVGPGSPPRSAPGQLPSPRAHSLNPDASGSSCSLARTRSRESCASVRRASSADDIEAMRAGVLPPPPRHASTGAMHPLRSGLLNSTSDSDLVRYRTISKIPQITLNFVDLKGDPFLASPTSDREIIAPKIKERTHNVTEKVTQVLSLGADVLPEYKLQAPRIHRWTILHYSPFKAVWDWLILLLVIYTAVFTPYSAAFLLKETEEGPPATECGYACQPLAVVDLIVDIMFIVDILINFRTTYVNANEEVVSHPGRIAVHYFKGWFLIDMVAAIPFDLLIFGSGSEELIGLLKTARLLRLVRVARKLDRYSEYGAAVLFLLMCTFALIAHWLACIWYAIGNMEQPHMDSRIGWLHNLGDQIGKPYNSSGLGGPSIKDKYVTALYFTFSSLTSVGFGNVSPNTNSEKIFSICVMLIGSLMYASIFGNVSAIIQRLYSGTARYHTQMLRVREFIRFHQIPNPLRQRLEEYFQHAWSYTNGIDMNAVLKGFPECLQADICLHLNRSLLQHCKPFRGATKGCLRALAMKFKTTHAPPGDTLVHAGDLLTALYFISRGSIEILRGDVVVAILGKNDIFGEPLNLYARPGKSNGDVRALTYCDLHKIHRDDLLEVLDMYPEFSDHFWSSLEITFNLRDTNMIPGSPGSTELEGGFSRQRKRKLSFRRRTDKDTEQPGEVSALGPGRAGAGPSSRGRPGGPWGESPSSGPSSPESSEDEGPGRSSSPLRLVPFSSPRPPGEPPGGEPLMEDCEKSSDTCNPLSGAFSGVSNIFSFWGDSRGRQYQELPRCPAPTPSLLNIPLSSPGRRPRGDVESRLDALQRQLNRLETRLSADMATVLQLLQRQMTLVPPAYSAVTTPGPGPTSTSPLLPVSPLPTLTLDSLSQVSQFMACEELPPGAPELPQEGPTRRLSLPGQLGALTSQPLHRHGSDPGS
row,Compound,"hERG current change (%, negative = inhibition) at 1uM [%]"
1,O=C(COc1ccccc1)N1CCN(S(=O)(=O)c2cccc([N+](=O)[O-])c2)CC1,-9.13
2,CCC1=NC(c2ccc(OC)cc2)N(O)C1(C)C (stereo not drawn),16.6
3,O=C(COc1ccc(-n2cnnn2)cc1)NCCc1ccc(F)cc1,-5.74
4,Cc1ccc(NS(=O)(=O)c2cccc(C(=O)NCC(c3cccs3)N3CCOCC3)c2)cc1 (stereo not drawn),4.61
5,O=C(CCCNC(=O)/C(=C\c1ccc(F)cc1)NC(=O)c1ccccc1)OCc1ccccc1,-39.2
6,CCc1ccc(NC(=O)c2cnn(-c3ccccc3)c2C2CCNCC2)cc1.Cl,-8.84
7,Cc1ccc(S(=O)(=O)N2CCC(Oc3ccc(-n4cnnn4)cc3)CC2)cc1,9.31
8,COc1ccc(Cc2nnc(NC(=O)C(C)C)s2)cc1,13.4
9,S=c1[nH]nc(-c2n[nH]c3c2CCC3)n1/N=C/C=C/c1ccccc1,12
10,C=CCN1C(=O)C2(c3ccccc31)C1CCCC=C1C(C#N)=C(N)C2(C#N)C#N (stereo not drawn),9.45
11,O=C(Nc1nnc(-c2ccccc2)o1)Nc1ccccc1Cl,1.8
12,COc1cc(/C=C/CN2CCN(Cc3ccc(C)o3)C(CCO)C2)ccc1O (stereo not drawn),5.85
13,Cc1c(NC2=NC(C)(C)Cc3ccccc32)c(=O)n(-c2ccccc2)n1C,-0.293
14,Cc1ccc(Cl)cc1N1CCN(c2cccc[n+]2C)CC1.[I-],-6.18
15,Cc1ccccc1CSCC(=O)NNC(=S)NCC1CCCO1 (stereo not drawn),2.55
16,COC(=O)c1ccc(NC(=S)NCCc2ccccc2)cc1,14.6
17,CN(C)S(=O)(=O)Nc1ccc2c(c1)Cc1ccccc1-2,13
18,OCCC1CN(Cc2cccn2-c2nccs2)CCN1C1CCCCC1 (stereo not drawn),-4.43
19,CCc1ccccc1NC(=O)CNC(=O)CSC(=S)N1CCCC1,8.94
20,Cc1nnc(OCc2nc3ccccc3n2C)c2ccccc12,-10.1
21,O=C(C1=NN[C@@H]2C(=O)N(c3cccc(F)c3)C(=O)[C@H]12)c1ccc2ccccc2n1,6.85
22,CC(=O)Nc1ccc(C2Nc3ccccc3C(=O)N2C2CCCCC2)cc1 (stereo not drawn),12.2
23,COC(=O)c1sc2ccccc2c1NC(=O)c1ccc(S(=O)(=O)N2CC(C)CC(C)C2)cc1 (stereo not drawn),0.615

row,Compound,"hERG current change (%, negative = inhibition) at 1uM [%]"
1,CN(c1ccc(C(=O)N2CCOCC2)cc1)S(C)(=O)=O,-0.669
2,CSc1ccc(C(=O)C2CCCN(C(=O)CCCn3cncn3)C2)cc1 (stereo not drawn),-5.25
3,CCN(CC)C(=S)SSC(=S)N(CC)CC,17.2
4,Cc1ccc(C)c(NC(=S)NCC(c2cccnc2)N2CCOCC2)c1 (stereo not drawn),6.28
5,CCn1ncc(CNC(=O)CCCSc2nc(-c3ccco3)cc(C(F)(F)F)n2)c1C,8.65
6,CCOC(=O)c1ccc(N2C(=O)CC(N(C)Cc3ccccc3)C2=O)cc1 (stereo not drawn),12.6
7,CCOC(=O)CSc1nc2ccccc2c(=O)n1CC,-1.18
8,CC(C)(C)C(=O)OCc1nc(-c2ccc(O)c(O)c2)cs1,5.91
9,CCN(CCNC(=O)C1CCN(S(=O)(=O)c2cccc3cccnc23)CC1)c1ccccc1,-7.93
10,COc1cc2[nH]cc(C(=O)NCc3ccccc3)c(=O)c2cc1OC,13.2
11,CC(=O)N(c1ccccc1)c1nc(C)cc(C)c1C#N,13
12,Cc1cccc(NC(=O)C2CCN(S(=O)(=O)c3cccs3)CC2)c1,10.2
13,CN1C(=O)C(C)(C)c2cc(S(=O)(=O)N3CCN(c4ccc(F)cc4)CC3)ccc21,14.3
14,COc1ccc(NC(=O)c2ccc(-n3cncn3)c([N+](=O)[O-])c2)cc1,13.6
15,COc1ccc(-c2nn(-c3ccccc3)cc2C(=O)NCC2CCCO2)cc1 (stereo not drawn),11.2
16,CC1(C)CC(=O)c2ccc(O)cc2O1,11.3
17,COc1ccc(C(=O)NC(Cc2ccc(OC(=O)c3ccc(OC)cc3)cc2)C(=O)O)cc1 (stereo not drawn),13.6
18,CCOC(=O)/C=C/C(=O)OCC(=O)Nc1cccc(Cl)c1Cl,5.39
19,Cn1cccc1Cc1nnc(SCC(=O)N2CCCC2)n1CCc1ccccc1,10.7
20,Cn1nc(C(C)(C)C)cc1C(=O)O,6.64
21,O=C(NC(Cc1ccccc1)C(=O)NCCc1ccccn1)c1cccs1 (stereo not drawn),7.71
22,COc1cccc(-c2nn(C)c3sc(C(=O)NCCCN(C)Cc4ccccc4)cc23)c1,9.14
23,CS(=O)(=O)N(CC(=O)Nc1ccc(S(=O)(=O)N2CCOCC2)cc1)c1ccccc1Cl,10.7

row,Compound,"hERG current change (%, negative = inhibition) at 1uM [%]"
1,C[C@@H]1C=C(C(=O)NC2CC2)O[C@H](OCc2ccc(CO)cc2)C1,8.28
2,C=CCn1c(C)cc(C(=O)CSc2nc(N)cc(N)n2)c1C,12.9
3,O=Cc1c(NCc2ccc(F)cc2)c2ccccc2[nH]c1=O,2.69
4,O=C(Nc1cccc2ccccc12)c1cn(-c2ccccc2)nc1-c1cccs1,13.7
5,CCS(=O)(=O)N1CCCC(C(=O)NCCCOC(C)C)C1 (stereo not drawn),5.97
6,COc1ccc(NC(=S)NN2CCOCC2)cc1OC,-8.02
7,CCCN(C(=O)CSc1nc(C2CC2)n(-c2ccccc2)n1)C1CCS(=O)(=O)C1 (stereo not drawn),4.85
8,COc1ccc(OC)c(NC(=O)CSc2ccc(-c3cccnc3)nn2)c1,-3.81
9,CN(CC(=O)Nc1ccc(N2CCOCC2)cc1)C(=O)CCc1ccccc1Cl,-3.41
10,O=[N+]([O-])c1cccc(N/N=C/c2cc([N+](=O)[O-])ccc2O)c1,4.49
11,O=C(CSc1ccccc1)Nc1nccs1,-2.3
12,CCn1c(CCCNC(=O)c2cccs2)nc2ccccc21,8.09
13,Cc1cc(=O)oc2cc(OCC(=O)OCC(=O)NC3CC3)ccc12,9.91
14,O=c1[nH]c(C(Cl)Cl)nc2sc3c(c12)CCN(Cc1ccccc1)C3,2.4
15,O=C(COc1ccc(S(=O)(=O)NC2CCCCC2)cc1)NCCC1=CCCCC1,8.42
16,COc1ccc(NC(=O)Nc2ccccc2F)c([N+](=O)[O-])c1,9.17
17,CC(C)C(OC(=O)c1nsc(Cl)c1Cl)C(=O)NCC1CCCO1 (stereo not drawn),8.55
18,Cc1ccc(NC(=O)C(c2ccc(Cl)cc2Cl)N2CCCC2)cc1 (stereo not drawn),5.63
19,COc1ccc2nc(C)cc(SCC(=O)N3CCCCC3)c2c1,-4.35
20,Cc1cccc(N2C(=O)/C(=C\c3ccc(C(=O)O)cc3)c3ccccc3C2=O)c1,11.4
21,CCN(C(C)=O)c1ccc(Oc2nc(OC)cc(OC)n2)cc1,-16.6
22,O=c1cc(-c2c(F)c(F)c(F)c(F)c2F)oc2c(F)c(F)c(F)c(F)c12,-4.46
23,CCc1ccc(N(CC(=O)NCc2cccnc2)S(=O)(=O)c2ccccc2)cc1,5.66

row,Compound,"hERG current change (%, negative = inhibition) at 1uM [%]"
1,CN(c1ccccc1)S(=O)(=O)c1ccccc1Br,16
2,COc1ccc(NC(=O)CSc2nc(C)cs2)c(OC)c1,9.43
3,C/C(=N\Nc1cc(N2CCCCC2)nc(C)n1)c1ccc(Br)cc1,3.91
4,C=CCn1c(-c2ccccc2)cc(SC)c(C#N)c1=O,10.4
5,CC(OC(=O)c1ccc2ncsc2c1)C(=O)Nc1ncc(Cl)cc1Cl (stereo not drawn),8.58
6,CC(=O)N1CCCc2cc(S(=O)(=O)N(C)CCC#N)ccc21,7.46
7,CCCOC(=O)c1ccc(NC(=O)CSC2=Nc3ccccc3C3CC=NN23)cc1 (stereo not drawn),21.4
8,COc1cc2ccccc2cc1C(=O)N(CCN(C)C)c1nc2ccc(C)cc2s1.Cl,17
9,CCCn1nc(NC(=O)c2cccs2)c2cc3cc(C)ccc3nc21,11.5
10,CCC(C)(C)NC(=O)C(c1ccc(OC)cc1)N(C(=O)CCC(=O)Nc1cc(C)on1)c1ccccc1OC (stereo not drawn),2.39
11,CC(=O)Nc1ccc(NC(=O)COC(=O)c2ccccn2)cc1,20.6
12,COc1ccc(S(=O)(=O)N2CCC(C(=O)N3CCCC3)CC2)cc1C,15.3
13,O=C(NC1CCN(C(=O)c2cccc([N+](=O)[O-])c2)CC1)c1ccccc1,10
14,CC(=O)Nc1ccc(CN2CCC(Oc3ccc(C(=O)N4CCCC4)cc3)CC2)cc1,-6.27
15,COc1ccc(-c2coc3cc(O)c(OC)cc3c2=O)cc1,9.88
16,Cn1c(SC2CCCCC2=O)nnc1-c1ccncc1 (stereo not drawn),-3.05
17,CCC(=O)c1c(CC)c2n3c1CC[C@H]3CCC2,2.14
18,c1ccc(Cn2c(-c3ccco3)nc3nc4ccccc4nc32)cc1,8.8
19,O=c1[nH]c(CSc2ncnc3sccc23)nc2cc(C(F)(F)F)ccc12,12.3
20,CC(O)(C#CCN1CCCCCC1)c1ccccc1 (stereo not drawn),6.84
21,CC(C)(C)c1nnc(NS(=O)(=O)c2ccc([N+](=O)[O-])cc2)s1,26.2
